Assay results taken from paper PMC5307367.
Results are given in words; binding and its absence hold for the method and conditions named. In cells and extracts the contact can be indirect. Some binding calls cover weakened binding; strength is not graded here. For some of these results: Tags and fused reporters may be left off the sequences shown.

Amino acid sequences for entries named in this document (tags omitted). A change or cut given only in a name is not applied to a line headed by its entry.
UniProt Q14680: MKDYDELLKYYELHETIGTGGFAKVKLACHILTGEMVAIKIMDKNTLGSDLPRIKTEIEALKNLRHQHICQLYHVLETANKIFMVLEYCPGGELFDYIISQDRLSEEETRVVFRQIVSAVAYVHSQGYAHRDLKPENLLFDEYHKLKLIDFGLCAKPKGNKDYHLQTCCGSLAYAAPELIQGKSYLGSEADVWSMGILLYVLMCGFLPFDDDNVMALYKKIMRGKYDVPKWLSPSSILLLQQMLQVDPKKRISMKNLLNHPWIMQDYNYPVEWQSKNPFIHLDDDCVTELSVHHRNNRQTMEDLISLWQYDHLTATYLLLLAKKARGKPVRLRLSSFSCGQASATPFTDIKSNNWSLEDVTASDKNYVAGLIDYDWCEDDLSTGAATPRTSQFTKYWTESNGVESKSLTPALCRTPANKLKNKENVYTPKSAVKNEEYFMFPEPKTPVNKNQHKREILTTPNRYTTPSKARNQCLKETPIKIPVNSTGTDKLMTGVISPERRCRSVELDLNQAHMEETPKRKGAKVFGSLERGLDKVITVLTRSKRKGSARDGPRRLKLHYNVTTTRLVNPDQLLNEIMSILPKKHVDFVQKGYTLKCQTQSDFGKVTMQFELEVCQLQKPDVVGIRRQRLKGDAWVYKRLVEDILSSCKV
UniProt Q61846: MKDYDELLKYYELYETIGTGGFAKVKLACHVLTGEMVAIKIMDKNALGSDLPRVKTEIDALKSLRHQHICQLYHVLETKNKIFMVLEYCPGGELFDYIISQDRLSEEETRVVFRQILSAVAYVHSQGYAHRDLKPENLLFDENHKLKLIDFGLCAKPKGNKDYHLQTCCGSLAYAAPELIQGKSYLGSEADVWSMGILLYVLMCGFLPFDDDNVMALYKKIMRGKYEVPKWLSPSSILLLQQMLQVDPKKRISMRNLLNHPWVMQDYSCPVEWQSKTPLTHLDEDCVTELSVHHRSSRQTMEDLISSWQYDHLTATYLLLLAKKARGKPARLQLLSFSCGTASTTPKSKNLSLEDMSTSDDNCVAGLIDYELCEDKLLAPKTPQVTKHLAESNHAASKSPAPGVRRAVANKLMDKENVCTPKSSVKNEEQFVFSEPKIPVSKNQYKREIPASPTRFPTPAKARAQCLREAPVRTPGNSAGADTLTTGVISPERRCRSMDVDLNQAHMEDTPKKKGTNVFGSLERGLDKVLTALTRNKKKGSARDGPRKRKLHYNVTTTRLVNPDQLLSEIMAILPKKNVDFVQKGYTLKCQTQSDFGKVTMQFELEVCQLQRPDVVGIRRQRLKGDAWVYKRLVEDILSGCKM

Key:
[1] = biological target: endogenous MPK38 (MELK) of HEK293 cells (human (endogenous in HEK293)) (UniProt Q14680); experiment: co-IP; endogenous proteins of HEK293 cells; immunoprecipitation with an anti-MPK38 antibody (rabbit preimmune serum as control), immunoblot with an anti-ZPR9 antibody; lysates treated with H2O2, DTT or beta-ME on ice for 0.5-1 h (Fig. 3A), or cells treated with H2O2, thapsigargin, ionomycin, TNF-alpha, TGF-beta1, 5FU or doxorubicin (Fig. 4)
[2] = biological target: GST-tagged MPK38, wild type (mouse) (UniProt Q61846); experiment: pull-down; HEK293 cells transfected with the indicated expression vectors, with or without wild-type or T252A ZPR9; lysates precipitated with glutathione-Sepharose beads (GST purification), immunoblot with an anti-FLAG antibody (Fig. 8B and 8C, left panels)
[3] = biological target: endogenous MPK38 (MELK) of HEK293 cells (human (endogenous in HEK293)) (UniProt Q14680); experiment: co-IP; HEK293 cells transfected with wild-type or T252A ZPR9 or without; MPK38 immunoprecipitates (IP: anti-MPK38) of the endogenous protein, immunoblot with anti-Mdm2, anti-Trx or the indicated antibodies (Fig. 8B and 8C right panels, 8D lower panels)
[4] = biological target: GST-tagged MPK38, wild type (mouse) (UniProt Q61846); experiment: pull-down; in vivo binding assay: HEK293 cells co-transfected with a GST-tagged and a FLAG-tagged protein, GST precipitates (GST purification) of the lysate, immunoblot with an anti-FLAG antibody (Fig. 3B)
[5] = biological target: GST-tagged MPK38 C286S (mouse) (UniProt Q61846); experiment: as above
[6] = biological target: GST-tagged MPK38 C269S/C286S (mouse) (UniProt Q61846); experiment: as above
[7] = biological target: GST-tagged MPK38 C269S (mouse) (UniProt Q61846); experiment: as above

B1: endogenous ZPR9 of HEK293 cells (protein, UniProt Q969S3 1-477)
chain: MATYTCITCRVAFRDADMQRAHYKTDWHRYNLRRKVASMAPVTAEGFQERVRAQRAVAEEESKGSATYCTVCSKKFASFNAYENHLKSRRHVELEKKAVQAVNRKVEMMNEKNLEKGLGVDSVDKDAMNAAIQQAIKAQPSMSPKKAPPAPAKEARNVVAVGTGGRGTHDRDPSEKPPRLQWFEQQAKKLAKQQEEDSEEEEEDLDGDDWEDIDSDEELECEDTEAMDDVVEQDAEEEEAEEGPPLGAIPITDCLFCSHHSSSLMKNVAHMTKDHSFFIPDIEYLSDIKGLIKYLGEKVGVGKICLWCNEKGKSFYSTEAVQAHMNDKSHCKLFTDGDAALEFADFYDFRSSYPDHKEGEDPNKAEELPSEKNLEYDDETMELILPSGARVGHRSLMRYYKQRFGLSRAVAVAKNRKAVGRVLQQYRALGWTGSTGAALMRERDMQYVQRMKSKWMLKTGMKNNATKQMHFRVQVRF
binding [1]: binds

B2: Trx, transfected (protein, UniProt P10599 1-105)
chain: MVKQIESKTAFQEALDAAGDKLVVVDFSATWCGPCKMIKPFFHSLSEKYSNVIFLEVDVDDCQDVASECEVKCMPTFQFFKKGQKVGEFSGANKEKLEATINELV
binding [2]: binds

B3: endogenous Trx of HEK293 cells (protein, UniProt P10599 1-105)
chain: B2 chain
binding [3]: binds

B4: FLAG-tagged ZPR9, wild type (protein, UniProt Q969S3 1-477)
chain: B1 chain
binding [4]: binds
binding [5]: binds weakly
binding [6]: no binding
binding [7]: binds weakly
